The list shows a part of the results. Viral Rep nickase domains cut single-stranded DNA in vitro (1 h at 37 °C, 3 µM enzyme); the outer parts of the 90-letter strands are left off. A value is the log2 ratio of uncut reads to the pool without enzyme; strong cutting gives strongly negative numbers. There is no active / inactive call. Counts are relative to all reads; uncut strands gain when others are lost, and binding without cutting may add a little.
Test system: T1, Rep nickase domain of tomato golden mosaic virus
T1 sequence (protein, residues 1-124, tag omitted): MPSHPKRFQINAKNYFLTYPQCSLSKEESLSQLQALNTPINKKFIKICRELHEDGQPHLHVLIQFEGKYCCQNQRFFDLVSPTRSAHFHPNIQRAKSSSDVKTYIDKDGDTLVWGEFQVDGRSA
Experiment: uncleaved DNA left, log2 of reads against the no-enzyme library (log2 ratio); higher = less cleavage (more negative = more Rep cleavage of the k-mer); sequences stand for … in CTCGTCCG…ACCGGAGA
Method: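 A pool of 90-nt single-stranded DNAs with seven random bases just before the constant AC of the nick site (name = the seven bases) was cut by 3 µM recombinant His6-SUMO-tagged Rep nickase domain (300 nM DNA, 50 mM HEPES pH 8.0, 50 mM NaCl, 1 mM MnCl2, 1 h, 37 °C, three replicates). Uncut DNA was amplified and sequenced.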

Q: Which “uncleaved DNA left (log2)” value does the source give for GAAGCTA here?
A: 0.218

Q: For AAGGAAT, which “uncleaved DNA left (log2)” value is on record?
A: 0.119

Q: GCAGAAC was tested. Which “uncleaved DNA left (log2)” value did it give?
A: -0.0747

Q: GGCTATC was tested. Which “uncleaved DNA left (log2)” value did it give?
A: -0.254

Q: With TCGTTAA as the sequence, how does the “uncleaved DNA left (log2)” value read?
A: -0.129

Q: For CAGGGCC, which “uncleaved DNA left (log2)” value is on record?
A: -0.0638

Q: Which “uncleaved DNA left (log2)” value does the source give for ATCAGCG here?
A: -0.0835

Q: With GTAGTGT as the sequence, how does the “uncleaved DNA left (log2)” value read?
A: 0.011

Q: How did the “uncleaved DNA left (log2)” value turn out when GCCCATC was run?
A: 0.0169

Q: With CAGTCAA as the sequence, how does the “uncleaved DNA left (log2)” value read?
A: 0.00327

Q: Which “uncleaved DNA left (log2)” value does the source give for GACCAAT here?
A: -0.00268

Q: GGACCTA was tested. Which “uncleaved DNA left (log2)” value did it give?
A: -0.00501

Q: Which “uncleaved DNA left (log2)” value does the source give for GTCATCT here?
A: 0.0328

Q: With TGCCACT as the sequence, how does the “uncleaved DNA left (log2)” value read?
A: -0.0106

Q: With GCCGCAC as the sequence, how does the “uncleaved DNA left (log2)” value read?
A: 0.0666

Q: For GACGGCA, which “uncleaved DNA left (log2)” value is on record?
A: 0.0408

Q: ATCAGGG was tested. Which “uncleaved DNA left (log2)” value did it give?
A: 0.0133

Q: Which “uncleaved DNA left (log2)” value does the source give for CCCGTTC here?
A: -0.205

Q: How did the “uncleaved DNA left (log2)” value turn out when AGGCCAT was run?
A: 0.0225

Q: Which “uncleaved DNA left (log2)” value does the source give for CGTCTCG here?
A: 0.0604

Q: How did the “uncleaved DNA left (log2)” value turn out when AAAGCTT was run?
A: -0.0447

Q: How did the “uncleaved DNA left (log2)” value turn out when CCATGTT was run?
A: -1.27

Q: Which “uncleaved DNA left (log2)” value does the source give for AGTAAGA here?
A: 0.0197

Q: How did the “uncleaved DNA left (log2)” value turn out when CACGCAG was run?
A: -0.0722

Q: Which “uncleaved DNA left (log2)” value does the source give for TCAACAG here?
A: 0.0189

Q: With GTGCGCC as the sequence, how does the “uncleaved DNA left (log2)” value read?
A: 0.00903

Q: With CCGACCT as the sequence, how does the “uncleaved DNA left (log2)” value read?
A: -0.0982

Q: For GCTGCAG, which “uncleaved DNA left (log2)” value is on record?
A: -0.15

Q: TCGCCGA was tested. Which “uncleaved DNA left (log2)” value did it give?
A: -0.0964

Q: For CCCTAAG, which “uncleaved DNA left (log2)” value is on record?
A: 0.169

Q: Which “uncleaved DNA left (log2)” value does the source give for CGGGTTA here?
A: -0.106

Q: Which “uncleaved DNA left (log2)” value does the source give for TACCCGA here?
A: -0.127

Q: For GTCCGTC, which “uncleaved DNA left (log2)” value is on record?
A: -0.0678

Q: ATCATAT was tested. Which “uncleaved DNA left (log2)” value did it give?
A: -0.0822

Q: Which “uncleaved DNA left (log2)” value does the source give for TCGTTTC here?
A: -0.16

Q: For CTAGAGG, which “uncleaved DNA left (log2)” value is on record?
A: 0.246

Q: With GCCGCCA as the sequence, how does the “uncleaved DNA left (log2)” value read?
A: 0.112

Q: CCATCGG was tested. Which “uncleaved DNA left (log2)” value did it give?
A: 0.0623

Q: For TCGAGAC, which “uncleaved DNA left (log2)” value is on record?
A: 0.0657

Q: How did the “uncleaved DNA left (log2)” value turn out when CGCCCGT was run?
A: -0.0516

Source: the supplement of paper PMC7826260
